Reference: the supplement of paper PMC3334620
In all, about 33,000 sequences were measured (“E-score (-0.5 to 0.5)”: median about -0.013, highest 2% from about 0.3 on). Some of the results follow.

Each sequence was assayed against T1, Msn1 (UniProt P22148) (assay: PBM E-score (8-mer binding enrichment) (E-score (-0.5 to 0.5)); higher = stronger / more preferred TF binding; most listed sequences are background and not binding sites). Settings: protein concentration: 200 nM; construct: GST-full length.
T1 sequence: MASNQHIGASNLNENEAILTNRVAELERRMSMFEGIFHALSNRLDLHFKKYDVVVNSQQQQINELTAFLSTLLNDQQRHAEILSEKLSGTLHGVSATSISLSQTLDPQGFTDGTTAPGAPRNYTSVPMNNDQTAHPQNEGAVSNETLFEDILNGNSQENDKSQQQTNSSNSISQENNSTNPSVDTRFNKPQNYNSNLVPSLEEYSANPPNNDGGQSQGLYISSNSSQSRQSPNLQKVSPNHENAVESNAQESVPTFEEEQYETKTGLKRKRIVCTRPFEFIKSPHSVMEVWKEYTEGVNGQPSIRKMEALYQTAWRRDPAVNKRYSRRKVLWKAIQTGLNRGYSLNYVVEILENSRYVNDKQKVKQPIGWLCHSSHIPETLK
Method: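 Universal 'all 10-mer' protein binding microarrays (Agilent AMADID 015681) probed with GST-tagged S. cerevisiae TFs (full-length or DBD) made by in vitro transcription/translation (PURExpress), about 100-200 nM. Bound TF was detected with fluorescent anti-GST. Each ungapped 8-mer (which stands for itself and its reverse complement) is scored by the PBM enrichment score (E-score), a modified Wilcoxon-Mann-Whitney statistic from -0.5 to +0.5, computed with the Universal PBM Analysis Suite. Scale: above 0.35 generally sequence-specific binding.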

Sequence | PBM E-score
GCTCCCCC | -0.439
CCAAAAAA | 0.253
GGAGCGAC | 0.0732
GAACTCTA | -0.00897
CGTTGGGC | -0.214
AACCAAAG | 0.132
CCACGGCC | -0.207
CTCAAATC | -0.119
GCGAACAA | 0.198
CCAGGGGG | -0.409
CCGGGGTA | -0.118
ACTGGCCC | -0.17
AATGTGGG | -0.0572
AAGAGACA | 0.288
ACCGCCCA | -0.152
AACAGGGC | -0.0687
GCGTCTCA | -0.163
TTACCGAA | 0.148
ACCTACTA | 0.036
ACTGTGAG | -0.00926
CTATCACA | 0.0627
GCTTACCA | 0.0274
TGATATCA | -0.0826
ATAGGATC | 0.0486
ATTATGCG | 0.141

Sequence | PBM E-score
CAAACCTA | 0.0463
AGCATTCC | -0.00952
CAACATAG | -0.0484
CTTTTTTA | 0.139
GCGATGTA | 0.108
AATCAGTA | -0.0738
AGTCTGTG | 0.0386
GGACGTGA | 0.047
ACCTCTGC | -0.027
AGTACCAG | -0.0751
AATGCTTC | -0.018
GAGTAAAC | 0.00494
GTTAGAAC | 0.087
AGCTCGGG | -0.0806
ATTACGTA | 0.115
AATGAGAC | -0.109
TCAACCAA | -0.0828
GTGGTTCA | 0.0668
ACCTTGAT | -0.0483
TGATGTAA | 0.0977
CGTTTGGA | 0.0306
CTTTGGCC | 0.0387
TAACCGGA | 0.14
CACTACAC | -0.0989
AAGCTGCG | 0.00828

Sequence | PBM E-score
CGGGCATA | 0.0289
CAACTGCC | 0.0612
GGCCTAAC | 0.115
GCTAGGGA | -0.174
TCAGTGAA | 0.0451
ACCTGGCG | -0.222
ATCCACCC | -0.206
CCATGATC | -0.136
CCCTAAGA | -0.0786
ACTGATTG | -0.00112
AACCTATT | -0.0559
AGGGAACG | -0.142
AGATATAA | 0.0626
ATCGTTCA | -0.0729
CTTTTTCA | 0.00105
CCAAGACC | -0.0429
CTAAAGAC | 0.0581
AGCTATAA | -0.0523
CGGGGAAG | -0.204
ATGAGCAC | -0.0845
ACGTGAAG | 0.0431
CAGCGAGA | -0.234
CCACGTAC | 0.0149
AAAAATCC | -0.0571
GATCCAGC | -0.25

Sequence | PBM E-score
ATTCTGGC | -0.0721
AAAGAAAC | 0.205
ACACTGAT | 0.00132
GTGTTTGA | 0.154
CCCAGTTC | -0.0399
GGAGCCGA | -0.0414
AAGTATTG | 0.0345
TGTCCACA | 0.455
TATTTGCA | 0.145
CAGCACTA | -0.0613
GCTCCGAA | 0.232
AGTATTCC | 0.0538
AATCTTCA | 0.211
AGGAAGCC | -0.238
CGACCCAC | -0.208
GAACGGAC | -0.0194
AAGCATTG | -0.0998
GTGGAGCA | -0.158
AAGGGTAC | -0.136
AACAAGTG | -0.0369
AGGAGATC | -0.00189
AGCCTTAA | 0.00365
GGTTAGCA | -0.0578
GGCATCCA | -0.126
CCGAGGTA | 0.121

Sequence | PBM E-score
GAATTCAA | 0.0554
AAAAATGC | 0.0785
GAAGCTTC | -0.0961
CTATTCGA | 0.14
CTTGCCGC | -0.111
CAAAGTCA | 0.0661
AGATGCAC | -0.243
ACTGAAAG | 0.149
GGTGTCCA | 0.352
CCAGCGTA | -0.121
CCCTTGGA | -0.0474
GCGTTTCA | 0.0438
CGTTACAC | -0.104
ATTACACC | 0.0147
CTACGCAC | -0.0808
CTACTTAC | -0.104
CATCTGAC | 0.0663
AACTATCC | -0.0648
AATTCTGT | 0.0506
AACAATTA | 0.165
GGTGGGAC | 0.0174
GCCGAACC | -0.0128
AGCTATGC | -0.342
CAATGGCA | 0.0114
AGCCGGGG | -0.291

Sequence | PBM E-score
CACATAGC | -0.0496
CCAGTACC | 0.0169
GAGTAGTA | -0.0474
CCTACCCG | -0.122
AATCCGCG | -0.0338
CGATCGAA | 0.019
ATGGCGCA | -0.0464
ACTATTTA | 0.148
ACAGATCG | -0.0258
CTGCACGC | -0.253
AAGCCTAG | -0.0264
ATCTGTTG | -0.0313
TGAGACCA | -0.0631
CACGTTAA | 0.0389
AGCTGCGG | -0.201
GCGCTATA | -0.036
CTTAACAA | 0.18
GAAACCCA | 0.111
AGTCCCGG | -0.0481
AAAGCTCA | -0.113
AGACAATC | 0.359
AGGATGAA | -0.174
ATGGGCAC | -0.0088
GAGCGGGC | -0.253
ACAATGGG | 0.196

Sequence | PBM E-score
GCGCTCAC | -0.117
CGTCTGTA | 0.0585
AGTATAAA | 0.203
CCCGACAA | 0.329
TACCGGAA | 0.198
CTCGGTAC | 0.0483
CCCGCGTA | -0.123
CTAGGACC | -0.0875
AGTAGAGA | -0.0748
GCGACTCA | -0.154
GGAACAAA | 0.274
GAAAATTA | 0.0395
CAGGCTCG | -0.0345
TCACGTGA | 0.203
CTAACTAC | -0.0627
GTCCCAAA | 0.266
CATTTGAC | 0.0237
GTAGGACA | 0.479
CCGACGGA | 0.00794
ACGGCAAT | 0.216
CTTGAGCA | -0.157
GCTTACTA | -0.184
